Measured values as given in PubChem BioAssay AID624172 (National Center for Advancing Translational Sciences (NCATS), 2012).
Screen size: about 380,000 compounds; about 25 (0.007%) were called active. Inconclusive means that the source gave no clear call. Such entries were picked first, then a sample of the others. Calls come from the whole dose curve; as a rule, active = well fitted activation curve with a large enough effect; inconclusive = small, poorly fitted or top-dose-only effect; inactive = no such curve, though single readings can be large or run the other way. No potency is given beside an inconclusive call; the fits are too rough.

Each molecule was assayed against Glucagon-like peptide 1 receptor (Homo sapiens) (UniProt P43220) (assay: qHTS of GLP-1 Receptor Agonists). Settings: HEK293 GLP-1R CRE-luciferase, luminescence, 4-6 h, cells express a hypersensitive GLP-1R form; activation: at 45.6 µM (top of the series).
Potency is the fitted concentration of half-maximal effect; tags give direction and shape of the fitted curve.
Throughout, for activation: % of control where 0% means no effect.

UniProt P43220, sequence (P43220 whole entry, looked up): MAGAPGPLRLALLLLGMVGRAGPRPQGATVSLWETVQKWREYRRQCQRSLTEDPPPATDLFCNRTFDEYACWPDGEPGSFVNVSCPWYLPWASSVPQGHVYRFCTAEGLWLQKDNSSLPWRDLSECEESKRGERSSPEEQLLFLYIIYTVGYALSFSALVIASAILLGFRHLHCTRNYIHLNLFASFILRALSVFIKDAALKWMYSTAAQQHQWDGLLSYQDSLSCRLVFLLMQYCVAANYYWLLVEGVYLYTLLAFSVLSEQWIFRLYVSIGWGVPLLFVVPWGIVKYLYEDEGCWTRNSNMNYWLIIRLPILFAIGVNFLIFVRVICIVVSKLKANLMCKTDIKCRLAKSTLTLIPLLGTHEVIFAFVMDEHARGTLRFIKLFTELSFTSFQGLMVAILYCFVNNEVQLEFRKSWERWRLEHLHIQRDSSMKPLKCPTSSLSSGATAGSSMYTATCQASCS

SMILES | activation | Potency
c1ccc2c(CCNCc3ccc4c(c3)OCO4)c[nH]c2c1 | inactive: 10.6% | 
COc1c(C=C2C(=O)NC(=O)NC2=O)c(CCN(C)C(=O)c2ccccc2)cc2c1OCO2 |  | inconclusive [activator, single point]
CNC(C)C#Cc1ccc2c(=O)c3ccccc3oc2c1 (stereo not given) |  | inconclusive [activator, partial curve, poor fit]
COc1cc(-c2ccc(=O)[nH]n2)ccc1OC(F)F | inconclusive: 57.7% [activator] | inconclusive [activator, partial curve]
CN(C)CCOC(=O)c1cn(Cc2ccccc2)c2ccccc12 |  | inconclusive [activator, partial curve]
O=[N+]([O-])c1ccc(O)c([N+](=O)[O-])c1 | inactive: -0.435% | 
CC(C)(C)c1ccc(C(=O)C2CCCN(Cc3ccon3)C2)cc1 (stereo not given) | inactive: -2.1% | 
Clc1ccccc1CNC1CN2CCC1CC2 (stereo not given) | inactive: -2.19% | 
CC(=O)O[C@H]1CC[C@H]2[C@@H]3CCC4=CC(=O)CCC4=C3C=C[C@]12C |  | inconclusive [activator, full curve, poor fit]
COc1ccc(CN2Cc3cc(-c4ccccc4)ccc3-n3nncc3C2)cc1 |  | inconclusive [activator, single point]
Cc1ccsc1C(=O)C1CCCN(Cc2ccc(-n3cccn3)cc2)C1 (stereo not given) | inactive: 5.79% | 
N#Cc1ccccc1Cn1cc(C(=O)c2ccco2)c2ccccc21 |  | inconclusive [activator, partial curve, poor fit]
CC1=CC(=O)OC2CC3OC4C[C@@H](C)C5OC6CC7O[C@]8(C)C/C=C\C9OC%10CC%11OC(CC(C)CO)CC(O)[C@]%11(C)OC%10CC9OC8C[C@]7(C)O[C@]6(C)CCC5OC4C[C@]3(C)OC12 (stereo not given in full) | inactive: -5.68% | 
CCCCCn1c(=O)c(C(=O)NCc2ccco2)c(O)c2ccccc21 | inactive: 4.08% | 
O=C(Cc1c[nH]c2ccccc12)NNCc1ccc(N(CCCl)CCCl)cc1 |  | inconclusive [activator, partial curve, poor fit]
CCC(=NC(C)c1ccccc1)c1c(O)n(C)c(=O)n(C)c1=O (stereo not given) |  | inconclusive [activator, partial curve, poor fit]
Fc1ccccc1CSc1ncnc2c1ncn2C1CCCO1 (stereo not given) |  | inconclusive [activator, partial curve, poor fit]
O=c1c2ccccc2nc(CNc2ccccc2)n1-c1ccccc1 | inactive: 8.02% | 
OCCOc1ccccc1 |  | inactive
O=c1[nH]cnc2[nH]cc(CN3CCCCC3)c12 | inactive: -5.17% | 

SMILES | activation | Potency
Cc1ncsc1CCOC(=O)c1ccc([N+](=O)[O-])cc1 |  | inconclusive [activator, single point]
CCC(=NC(C)c1ccccc1)c1c(O)[nH]c(=O)[nH]c1=O (stereo not given) |  | inconclusive [activator, single point]
C=CCCC[C@@H]1OC(=O)CNC(=O)C([C@@H](C)CC)NC(=O)[C@@H]2CCCN2C(=O)C([C@@H](C)CC)OC(=O)[C@H](Cc2ccccc2)N(C)C(=O)[C@H](C(C)C)NC(=O)C1(C)C (stereo not given in full) | inactive: -0.713% | 
CCCCc1cc(=O)oc2c3c(cc(OCC(=O)N4CCC[C@H]4C(=O)O)c12)OC(C)(C)CC3 |  | inconclusive [activator, single point]
NP(=O)(Nc1ccccc1)Nc1ccccc1 | inconclusive: 47.8% [activator] | 
O=C(Cc1cccs1)N1Cc2ccccc2-n2nncc2C1 | inactive: -0.0398% | 
COC(=O)C1=C(c2cccc(C#N)c2)C[C@@H]2CC[C@H]1N2C(=O)NCCc1ccccc1 | inactive: 7.31% | 
CN1C(=O)CN=C(c2ccccc2)c2cc(Cl)ccc21 |  | inconclusive [activator, partial curve]
COc1cc(C(=O)NN=Cc2ccc(N(CCCl)CCCl)cc2)cc(OC)c1OC |  | inconclusive [activator, partial curve, poor fit]
CNS(=O)(=O)c1cc(NC(=O)c2cccc3cccnc23)ccc1C |  | inconclusive [activator, partial curve]
Cc1cccc(CCNCc2cc3cc(C)cc(C)c3[nH]c2=O)c1 | inactive: -4.6% | 
CN(C)C(=O)Oc1ccc([N+](=O)[O-])cc1 | inconclusive: 32.5% [activator] | 
COC(=O)C1=C(c2cc3ccccc3o2)C[C@@H]2CC[C@H]1N2C(=O)N1CCCCC1 |  | inconclusive [activator, single point]
C[C@@H](C(=O)O)c1ccc(-c2ccccc2)c(F)c1 |  | inconclusive [activator, single point]
Cc1ccc(CN2CCSc3ccc(C(=O)N4CCC5(CC4)OCCO5)cc32)cc1 |  | inconclusive [activator, full curve, poor fit]
CC1=Nc2ccccc2/C1=C/c1c(O)[nH]c(=O)[nH]c1=O | inactive: -5.21% | 
CC(NCc1ccc(Cl)cc1)C(O)c1ccccc1 (stereo not given) |  | inconclusive [activator, partial curve]
Oc1ccc(C2=CCNCC2)cc1O |  | inconclusive [activator, full curve]
C=C(C)[C@@H]1CC[C@]2(C(=O)O)CC[C@]3(C)C(CCC4[C@@]5(C)CC[C@H](O)C(C)(C)C5CC[C@]43C)C12 (stereo not given in full) |  | inconclusive [activator, single point]
